From the supplement of paper PMC4604168 (melanoma cell lines)
The other results are listed elsewhere or left out. Single values are uncertain, as repeats are few or missing.

Columns and labels:
Test in all cases: cell count relative to DMSO control; melanoma cells; higher = more viable cells
Settings in all cases: library dose: low library concentration; 72 h
WM115 = tested on: WM115
WM1716 = tested on: WM1716
WM1745 = tested on: WM1745
WM3526 = tested on: WM3526
WM3619 = tested on: WM3619
WM451Lu = tested on: WM451Lu
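Note: cell number obtained by counting DAPI-stained nuclei in high-throughput microscope images with image analysis software, screen run in 1,536-well plates.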

| SMILES | cell count (WM115) | cell count (WM1716) | cell count (WM1745) | cell count (WM3526) | cell count (WM3619) | cell count (WM451Lu) |
| --- | --- | --- | --- | --- | --- | --- |
| C[C@]1(O)C[C@@H](c2nc(-c3ccc4ccc(-c5ccccc5)nc4c3)c3c(N)nccn32)C1 + C[As](C)SC[C@H](NC(=O)CC[C@H](N)C(=O)O)C(=O)NCC(=O)O [Darinaparsin] (first compound 0.4 µM, partner dose 0.4 µM) | 102% | 105% | 82% | 71.8% | 106% | 93.1% |
| O=C(/C=C/c1cccnc1)NCCCCC1CCN(C(=O)c2ccccc2)CC1 + Cn1cc(C2=C(c3cn(C4CCN(Cc5ccccn5)CC4)c4ccccc34)C(=O)NC2=O)c2ccccc21 [Enzastaurin] (first compound 0.01 µM, partner dose 0.8 µM) | 103% | 95% | 100% | 84.2% | 88.7% | 124% |
| CS(=O)(=O)c1ccc(C(=O)Nc2ccc(Cl)c(-c3ccccn3)c2)c(Cl)c1 [vismodegib] + Cc1cc(SCc2sc(-c3ccc(C(F)(F)F)c(F)c3)nc2C)ccc1OCC(=O)O [GW0742] (first compound 1 µM, partner dose 2 µM) | 102% | 115% | 103% | 92.1% | 89% | 135% |
| COc1cc([C@@H]2c3cc4c(cc3[C@@H](O[C@@H]3O[C@@H]5CO[C@@H](C)O[C@H]5[C@H](O)[C@H]3O)[C@H]3COC(=O)[C@H]23)OCO4)cc(OC)c1O [etoposide] + O=C(Oc1ccc([N+](=O)[O-])cc1)N1CCC(C(O)(c2ccc3c(c2)OCO3)c2ccc3c(c2)OCO3)CC1 [JZL184] (first compound 0.02 µM, partner dose 1 µM) | 86.1% | 93.4% | 92.4% | 92.2% | 85.7% | 99.8% |
| Cc1ccc(Nc2nccc(N(C)c3ccc4c(C)n(C)nc4c3)n2)cc1S(N)(=O)=O [Pazopanib] + N.N.[Cl][Pt][Cl] [cisplatin] (first compound 0.4 µM, partner dose 1.6 µM) | 105% | 94% | 87.5% | 87.5% | 90.3% | 81.5% |
| Cn1sc(=O)n(Cc2ccccc2)c1=O + Cc1cc(SCc2sc(-c3ccc(C(F)(F)F)c(F)c3)nc2C)ccc1OCC(=O)O [GW0742] (first compound 0.4 µM, partner dose 2 µM) | 99.9% | 102% | 78.2% | 103% | 92.1% | 98.4% |
| O=c1[nH]nc(Sc2ncc([N+](=O)[O-])s2)n1-c1ccc2c(c1)OCCO2 + C[As](C)SC[C@H](NC(=O)CC[C@H](N)C(=O)O)C(=O)NCC(=O)O [Darinaparsin] (first compound 0.2 µM, partner dose 0.4 µM) | 96.8% | 95.6% | 91.3% | 97.9% | 71.8% | 99.2% |
| Cc1cn(-c2cc(NC(=O)c3ccc(C)c(Nc4nccc(-c5cccnc5)n4)c3)cc(C(F)(F)F)c2)cn1 [nilotinib] + C[As](C)SC[C@H](NC(=O)CC[C@H](N)C(=O)O)C(=O)NCC(=O)O [Darinaparsin] (first compound 0.2 µM, partner dose 0.4 µM) | 106% | 102% | 86.3% | 88.2% | 80.5% | 111% |
| O=C(Nc1cccc(Cl)c1)Nc1ncc(CCNc2ncnc3ccsc23)s1 + Cc1cc(SCc2sc(-c3ccc(C(F)(F)F)c(F)c3)nc2C)ccc1OCC(=O)O [GW0742] (first compound 0.0008 µM, partner dose 2 µM) | 74% | 120% | 92.3% | 123% | 97.9% | 113% |
| Cc1cn(-c2cc(NC(=O)c3ccc(C)c(Nc4nccc(-c5cccnc5)n4)c3)cc(C(F)(F)F)c2)cn1 [nilotinib] + Cc1cc(SCc2sc(-c3ccc(C(F)(F)F)c(F)c3)nc2C)ccc1OCC(=O)O [GW0742] (first compound 0.2 µM, partner dose 2 µM) | 105% | 82.3% | 78.7% | 101% | 91.2% | 110% |
| CN(C)S(=O)(=O)c1ccc2c(c1)/C(=C/c1cc3c([nH]1)CCCC3)C(=O)N2 + Cc1cc(SCc2sc(-c3ccc(C(F)(F)F)c(F)c3)nc2C)ccc1OCC(=O)O [GW0742] (first compound 0.4 µM, partner dose 2 µM) | 84.3% | 108% | 69.9% | 96.6% | 101% | 116% |
| Cc1ccc(Nc2nccc(N(C)c3ccc4c(C)n(C)nc4c3)n2)cc1S(N)(=O)=O [Pazopanib] + Cn1cc(C2=C(c3cn(C4CCN(Cc5ccccn5)CC4)c4ccccc34)C(=O)NC2=O)c2ccccc21 [Enzastaurin] (first compound 0.4 µM, partner dose 0.8 µM) | 104% | 89.7% | 87.3% | 91.3% | 107% | 105% |
| O=C(O)[C@@H]1[O][Sb](=[O])([O][Sb]2(=[O])[O][C@H]([C@H](O)CO)[C@H](O)[C@H](C(=O)O)[O]2)[O][C@H]([C@H](O)CO)[C@@H]1O (some centres not stated) [stibogluconate] + C[As](C)SC[C@H](NC(=O)CC[C@H](N)C(=O)O)C(=O)NCC(=O)O [Darinaparsin] (first compound 2 µM, partner dose 0.4 µM) | 102% | 100% | 109% | 101% | 93% | 114% |
| C/C(O)=C(\C#N)C(=O)Nc1cc(Br)ccc1Br + CCCCCCCCCCCC1=C(O)C(=O)C=C(O)C1=O [Embelin] (first compound 2 µM, partner dose 1.2 µM) | 95.9% | 99% | 92.6% | 108% | 98.9% | 103% |
| Cc1ccc(Nc2nccc(N(C)c3ccc4c(C)n(C)nc4c3)n2)cc1S(N)(=O)=O [Pazopanib] + O=C(Oc1ccc([N+](=O)[O-])cc1)N1CCC(C(O)(c2ccc3c(c2)OCO3)c2ccc3c(c2)OCO3)CC1 [JZL184] (first compound 0.4 µM, partner dose 1 µM) | 110% | 101% | 87.5% | 79.4% | 97.6% | 84% |
| Nc1nc(F)nc2c1ncn2[C@@H]1O[C@H](CO)[C@@H](O)[C@@H]1O [fludarabine] + C[As](C)SC[C@H](NC(=O)CC[C@H](N)C(=O)O)C(=O)NCC(=O)O [Darinaparsin] (first compound 0.2 µM, partner dose 0.4 µM) | 82.7% | 97.7% | 114% | 22.5% | 91.9% | 45.2% |
| COc1ccc(C2=N[C@@H](c3ccc(Cl)cc3)[C@@H](c3ccc(Cl)cc3)N2C(=O)N2CCNC(=O)C2)c(OC(C)C)c1 [Nutlin-3] + C/C(O)=C(\C#N)C(=O)Nc1cc(Br)ccc1Br [LFM-A13] (first compound 0.1 µM, partner dose 2 µM) | 91.2% | 85.1% | 94.3% | 88.7% | 98.9% | 95.5% |
| CC[C@]1(O)C[C@H]2CN(CCc3c([nH]c4ccccc34)[C@@](C(=O)OC)(c3cc4c(cc3OC)N(C=O)[C@H]3[C@@](O)(C(=O)OC)[C@H](OC(C)=O)[C@]5(CC)C=CCN6CC[C@]43[C@@H]65)C2)C1 [vincristine] + O=C(Oc1ccc([N+](=O)[O-])cc1)N1CCC(C(O)(c2ccc3c(c2)OCO3)c2ccc3c(c2)OCO3)CC1 [JZL184] (first compound 0.0001 µM, partner dose 1 µM) | 57.6% | 36.3% | 83.6% | 60.4% | 67.1% | 48.4% |
| C[C@@H](Oc1cc(-c2cnn(C3CCNCC3)c2)cnc1N)c1c(Cl)ccc(F)c1Cl [Crizotinib] + C[As](C)SC[C@H](NC(=O)CC[C@H](N)C(=O)O)C(=O)NCC(=O)O [Darinaparsin] (first compound 0.2 µM, partner dose 0.4 µM) | 99.8% | 110% | 108% | 88.4% | 109% | 86.4% |
| C[C@@H](N)c1ccc(C(=O)Nc2ccnc3[nH]ccc23)cc1 + C/C(O)=C(\C#N)C(=O)Nc1cc(Br)ccc1Br [LFM-A13] (first compound 0.4 µM, partner dose 2 µM) | 99.1% | 66.9% | 87.3% | 109% | 108% | 87.8% |
| COc1ccc(C2=N[C@@H](c3ccc(Cl)cc3)[C@@H](c3ccc(Cl)cc3)N2C(=O)N2CCNC(=O)C2)c(OC(C)C)c1 [Nutlin-3] + Cc1cc(SCc2sc(-c3ccc(C(F)(F)F)c(F)c3)nc2C)ccc1OCC(=O)O [GW0742] (first compound 0.1 µM, partner dose 2 µM) | 94.3% | 83.9% | 93.7% | 94.8% | 117% | 97.3% |
| C[C@@H](N)c1ccc(C(=O)Nc2ccnc3[nH]ccc23)cc1 + O=C(Oc1ccc([N+](=O)[O-])cc1)N1CCC(C(O)(c2ccc3c(c2)OCO3)c2ccc3c(c2)OCO3)CC1 [JZL184] (first compound 0.4 µM, partner dose 1 µM) | 107% | 71.3% | 77.2% | 102% | 88.1% | 101% |
